Measured values: PMC12136788
This is one part of the list.

T1: UNK ZnF1-3 (human, UniProt Q9C0B0 31-174)
T1 sequence: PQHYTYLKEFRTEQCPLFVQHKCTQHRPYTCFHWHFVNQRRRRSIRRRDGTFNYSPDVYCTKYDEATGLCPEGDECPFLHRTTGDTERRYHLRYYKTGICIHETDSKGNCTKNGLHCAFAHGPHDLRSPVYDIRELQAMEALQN

B1: chr8:74527950:74527951:-_ENSG00000040341_ENST00000355780|hu_hu|motif|central (ssRNA)
RNA: GGGAGUUCUACAGUCCGACGAUCUUCUUUAAUAACCUCAAAACUGACAGGCAUAUUUCGCUUCAGAGCAAUUUCAAACACGGAGCUGAUCUCAGACUUAUUUGCAUCUUUGUCAUCAUCCACAUCCUUUCCUGAUUCACCAUUCAACAGAGGAUUGAGCAUCA
B2: chr17:46298169:46298170:+_ENSMUSG00000023952_ENSMUST00000024748|mus_mus|FALSE|FALSE (ssRNA)
RNA: GGGAGUUCUACAGUCCGACGAUCUUUACCUCCUCUGUUCCUUCCGUUCUUCUUCUUCCCCUUUGGGCCCCCGCAACUGCUGCUACCGCCGGCCCCCCGAGCUUUGAGGUUUCCACCCAUGGCCGGGCCUCCUCCGGGCCGGCACAACAGAGGAUUGAGCAUCA
B3: chr19:40030274:40030275:-_ENSG00000176396_ENST00000390658|hu_hu|FALSE|FALSE (ssRNA)
RNA: GGGAGUUCUACAGUCCGACGAUCCGGGUAAUUUUCCAGAUAGUGGCGGAGAAACUGCUGGUAAUUGAUGCCUAAAACGCUAAGUGGGUGGCGGAGACGGAGAUAGGGCAACGCAGCCAGGCCUCCGUUCCCGUGUCUGGACCUCAACAGAGGAUUGAGCAUCA
B4: chr8:80578333:80578334:+_ENSG00000104435_ENST00000220876|hu_mus|FALSE|FALSE (ssRNA)
RNA: GGGAGUUCUACAGUCCGACGAUCAACUCCAAUUCUUUAUUCAUCACAGCUUGCUCACAAUGACAUACAAGAAGAUAGCACUGACGAAGAGUAAAUAUGCAGGCAGUUUGGGAGUUGGGAGUUGGGAGUUAGGGAGAAACAACUCAACAGAGGAUUGAGCAUCA
B5: chr22:32879901:32879902:+_ENSG00000100225_ENST00000397426|hu_hu|FALSE|FALSE (ssRNA)
RNA: GGGAGUUCUACAGUCCGACGAUCCUCUGCCAUAUGCGCAUUAUCUUGAAUUGACUCAGCUUCAAAAUUUUGACUAGGCCCUAACAUACUGUCGUCAUUCCAAACACCAGACUGGGCUGCCUGUCCUUGGAAUGAAUCACUUGGCAACAGAGGAUUGAGCAUCA
B6: chr5:176562935:176562936:+_ENSG00000165671_ENST00000439151|hu_mus|FALSE|FALSE (ssRNA)
RNA: GGGAGUUCUACAGUCCGACGAUCGGGACUGGAGUCUGGAUCAUCCUGAAAAGAUAAAUUUAUUGAGUUAAAUUGCUCUUCUACGGUAACGUUCGUGUCUCCUAGUGAGGUGGGGGCUGGGAGGAGGGCUGUCUUUUCAUUGCUCAACAGAGGAUUGAGCAUCA
B7: chr1:66480114:66480115:+_ENSMUSG00000015222_ENSMUST00000024639|mus_hu|mus_mus_mus_hu_True|58_108 (ssRNA)
RNA: GGGAGUUCUACAGUCCGACGAUCUGGCCUGUGACGGAUGUUCUUCAGAGAGCCACAUUUGGAUGUCACAUGGCUUAAGUCUAUCUUCUUGGUAACAAUUUGUACCUGCCCCCCUUUAGGCUGGUAUUUGAUGUUGUCUGUUGACAACAGAGGAUUGAGCAUCA
B8: 121983341_121984406_576_CDS_ENSMUSG00000029454_ENSMUST00000153763|mouse|control|control (ssRNA)
RNA: GGGAGUUCUACAGUCCGACGAUCCGAGGUAGGUAUGAUGCCAGACUUCUCCUUCUGGUGCCGUCUCUGCGCUUCCAGUACCUGAGGUGCUACAUAGUAAGGGGUAAACUGGGGUGUCAUCAAAUCACCUUGGUCAACUUUAGCCAACAGAGGAUUGAGCAUCA
B9: chr7:72892388:72892389:-_ENSG00000009954_ENST00000339594|hu_mus|FALSE|FALSE (ssRNA)
RNA: GGGAGUUCUACAGUCCGACGAUCUUCUUUGUAAUAGGCAAUCAGAUGCAGAGCUGCAGGAGGCAGGUGUUUGUGAGGUUUACCAGAAGACCUUGGCACACCCCCAGAACUCCGUGGGGUGCGGGUCAUCUUCUGAGUCCCUUUCAACAGAGGAUUGAGCAUCA
B10: 117043516_117043636_1225_CDS_ENSG00000003096_ENST00000371878|human|control|control (ssRNA)
RNA: GGGAGUUCUACAGUCCGACGAUCCGAUUUCCACUCAUGGGCCUUUUCAUCAUACAUGCGCAAUUCCUUACUGACAACCAGCUGCUGCCUCAGCACUCCUCCUAGUGUAACCAAGUGAGUGGUGUCAGACCUAAUGGCAGUCCUCAACAGAGGAUUGAGCAUCA
B11: 49052207_49054487_3773_CDS_ENSG00000008294_ENST00000262013|human|control|control (ssRNA)
RNA: GGGAGUUCUACAGUCCGACGAUCGGGUAUAAAUGUCCCUGGAGUCACUUUAUCACUGUUUUCAUCACCAUAUACACGGAUUACACUUCCAGGACGAUUUCCUGGUACACCUGAGGUUUUAUUUGUUUCUGUCAAUGGGAUGGACAACAGAGGAUUGAGCAUCA
B12: chr16:87731977:87731978:+_ENSMUSG00000025612_ENSMUST00000026703|mus_mus|motif|central (ssRNA)
RNA: GGGAGUUCUACAGUCCGACGAUCAUGUACUUUCACACAGUGAGCACUCUCUCCCAGGAAAAUUGAGUGGACUUCUCAAAAUUUCGGGAAAAUAAUUCCAAUUUAAUUUUCUCUUCCAAAGAUGAAAACACAUACCACCCUUCCCAACAGAGGAUUGAGCAUCA
B13: chr3:148802587:148802588:-_ENSG00000071794_ENST00000310053|hu_mus|hu_hu_hu_mus_False|48_78 (ssRNA)
RNA: GGGAGUUCUACAGUCCGACGAUCUCCAACAACUUGUCCUCUCAUAGUUCCAAAUAAAACGGAAUCUUGCUCUUCAUCACUCGUUAGAAAGUCAUCUGGAGGAAUAAUGUCUUGGAAUUCAAAAUGUGGCAAGAAAGUUGAGUACAACAGAGGAUUGAGCAUCA
B14: chr1:94953452:94953453:+_ENSG00000117528_ENST00000370214|hu_hu|FALSE|FALSE (ssRNA)
RNA: GGGAGUUCUACAGUCCGACGAUCUUCUGUAAUCCGAGCAGUAAAACCGGCCAAUCUAGUCAUUUCACGCCCAGCCAAAACUAUUCGACCCAGAGCUUGAGACAUUCGCAAAAGCAUUCUUCCACUUUGGUAGUAAUCCUCUAGCAACAGAGGAUUGAGCAUCA
B15: chr5:17772112:17772113:-_ENSMUSG00000057614_ENSMUST00000074694|mus_mus|FALSE|FALSE (ssRNA)
RNA: GGGAGUUCUACAGUCCGACGAUCAAGUCUAAGAUCCUGUGUCCUGAAAAAAUCUGGAGAUUUGGUUUCUUAAAUAAAUCUAAACUAGAGUCAGAACAUCAUGCACUCUGUAAAUAAAUUCUAAUGCACUCAAUGCUUAAAUAACAACAGAGGAUUGAGCAUCA
B16: 66526805_66526925_1538_3pUTR_ENSG00000108946_ENST00000358598|human|control|control (ssRNA)
RNA: GGGAGUUCUACAGUCCGACGAUCACAUCAUUACUCUAUGGUAAUUCAAUAGGUGCUGGGAUCUGCCCUCACCAAAAAGCAUGGCACUCACUGCCCAGGGUGAAUACUAACACUGCACAAAGAGAAGCAGUAACAGCAAAGUCUCAACAGAGGAUUGAGCAUCA
B17: 32949551_32953290_374_CDS_ENSG00000060749_ENST00000399302|human|control|control (ssRNA)
RNA: GGGAGUUCUACAGUCCGACGAUCGCCUGUCUGCCAGGAUGGAGCCCUGAAUUGUGGUAAGAGAGUAGUUCCUGAAGCAGCAGCCUGAGCAGUUCGGGAUUCAGCAGUAGACAGAAAAUUCAUCACUGAAGACUCUUUAGUGUUCAACAGAGGAUUGAGCAUCA
B18: 107066159_107066279_1795_CDS_ENSMUSG00000049606_ENSMUST00000112696|mouse|control|control (ssRNA)
RNA: GGGAGUUCUACAGUCCGACGAUCCACAAACGUCUUAGGGCAAUUGGUACCAAACACACACUGAGGGCACUGGAGUCGAGCACUUCUGCCUUCAUCCUGGAGCUCUUUCAGCUCACGAAUCUCUUCCAUCAGCUUCUGCCGUCUCAACAGAGGAUUGAGCAUCA
B19: chr2:238002776:238002777:+_ENSG00000198612_ENST00000392008|hu_mus|motif|central (ssRNA)
RNA: GGGAGUUCUACAGUCCGACGAUCGAUGGAGGUAUAAGCUUGAGAGACCAGGGCAAAGGCGCGUCUCCUUGUUGCAUCUCGGAGGGCUUCCAUGAUUGGCUGCACAGUCUCUGACCACUGGUGGGCGUUGAUGGUUGUAUAGAUCAACAGAGGAUUGAGCAUCA
B20: chr6:44218252:44218253:+_ENSG00000096384_ENST00000371646|hu_mus|FALSE|FALSE (ssRNA)
RNA: GGGAGUUCUACAGUCCGACGAUCAUUGGUGAGGCUCUUAUAGAAUUCGCCAUACUCCUCCUGCGUGAUGUCAUCCGGGUUUCUGGUCCAGAUAGGCUUUGUCUUGUUCAGCUCCUCCUGGUCAAUGUACUUCUCUUUGAUCUUCAACAGAGGAUUGAGCAUCA
B21: chr5:72798899:72798900:+_ENSG00000145741_ENST00000335895|hu_mus|FALSE|FALSE (ssRNA)
RNA: GGGAGUUCUACAGUCCGACGAUCGGGUGCUUUUCCAUCCACAGAUUGUUUGGGCAGAGCUUCAGCCAGUCUCCUUAAACUAGUCAGGCUGUCUGCACCAAGCUGGUUGAGGAUGCUGGGAAGCAUUUCUGUCAGCUGCUUUGUCAACAGAGGAUUGAGCAUCA
B22: chr11:29608197:29608198:+_ENSMUSG00000020458_ENSMUST00000102843|mus_mus|motif|central (ssRNA)
RNA: GGGAGUUCUACAGUCCGACGAUCUGGAAUUUCAUUAGAUGCAGCAUCUUUUGUAAUAUGUAAAUUGGGCUGAAAAGACUCGGAAUAUGGCUUUCCUACCUCCUGAGGUGAAGCACUAAGUCUCUCCUUAUGUUUGUGUUGUGUCAACAGAGGAUUGAGCAUCA

Molecular target: T1, UNK ZnF1-3
Experiment: nsRBNS (natural sequence RNA bind-n-seq); RBNS binding buffer (assumed for nsRBNS): 25 mM Tris pH 7.5, 150 mM KCl, 3 mM MgCl2, 0.01% Triton X-100, 500 ug/ml BSA, 20 U/ml SUPERase-In, 4 C; UNK is unkempt and MSI1 is Musashi-1; names of the RNAs are library labels; protein concentration not given here; high values mean tight binding

| Binder | binding signal |
| --- | --- |
| B1 | 1.19 enrichment R |
| B2 | 0.851 enrichment R |
| B3 | 0.876 enrichment R |
| B4 | 2.37 enrichment R |
| B5 | 0.74 enrichment R |
| B6 | 0.869 enrichment R |
| B7 | 0.407 enrichment R |
| B8 | 0.93 enrichment R |
| B9 | 0.917 enrichment R |
| B10 | 0.77 enrichment R |
| B11 | 0.759 enrichment R |
| B12 | 1.28 enrichment R |
| B13 | 1.38 enrichment R |
| B14 | 0.956 enrichment R |
| B15 | 1.36 enrichment R |
| B16 | 1.15 enrichment R |
| B17 | 1.48 enrichment R |
| B18 | 0.955 enrichment R |
| B19 | 1.3 enrichment R |
| B20 | 0.292 enrichment R |
| B21 | 0.426 enrichment R |
| B22 | 1.69 enrichment R |
